# Experimental data from the supplement of paper PMC11417369.
# ± gives the standard deviation of the averaged measurements. Some of the results follow.
# Test system: PfAP2-LT AP2 domain (GST-tagged)
# Assay: gcPBM binding intensity (ln(normalized median fluorescence intensity)); higher = stronger DNA binding
# Procedure, shortened: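 Binding intensity values are the highest Masliner-normalised natural-log median intensity among replicate spots of either probe orientation. The binding step lasted 1 h in 1× PBS with 1% milk, 0.2 mg/ml BSA, 0.5% salmon testes DNA and 0.03% Triton X-100, using GST-tagged P. falciparum DNA-binding domains expressed in E. coli on an Agilent 4 × 180k array of primer-extended double-stranded 36-bp intergenic genomic probes plus negative controls. Alexa488 anti-GST antibody and a 488 nm scan detected bound protein.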
row,Sequence,gcPBM binding intensity (ln)
1,CGATTTTTTTTTTATTGTACTTGCTCGCATGCAATA [XGTACX_site4727],8.79 ± 0.46
2,TGTATACCTTAATATACACACATACAGATATATATA [CACACA_site4860],8.96 ± 0.38
3,TACAATCTTTCATTATGTACTTAACATTTTTTCTGT [XGTACX_site8752],8.85 ± 0.52
4,TTATATGTATATATATGTATATATATATATATATAG [TGCATGCA_negctrl_site461],8.82 ± 0.2
5,CATACAGATGGACACACACACACACCCACAGACAAA [CACACA_site4431],9.93 ± 0.36
6,TTTTTTTTTTGATGCACACACCTGAACGAGTTAATA [CACACA_site4329],9.17 ± 0.44
7,TTATCCTTGTAACAATGTACACATTATTTAATACTT [XGTACX_site1830],8.86 ± 0.52
8,GCATAAACGGATAATTAATTATATTATATTATATCA [CACACA_negctrl_site1519],8.7 ± 0.48
9,TCGTGAATGATTTAAGTACACACCGGTATTTATTCA [CACACA_site1564],9.04 ± 0.4
10,ATTTATTTATATATATTATTTGTTTTAATTTACTTA [XGTACX_negctrl_site246],8.66 ± 0.54
11,TATTGTTGTCTTTACACATGCAACAAAAGAAGAAAA [TGCATGCA_site911],8.58 ± 0.44
12,TATTCTAATATTTATACACACATAACTTTGATAAAT [CACACA_site6418],8.75 ± 0.42
13,TTTCTTGGGAGACATGCATGTACCAGAACAAAATAA [TGCATGCA_site272],8.79 ± 0.5
14,ATTAATTATTGTAATTGTACATTTTATATATATCCA [XGTACX_site2105],8.81 ± 0.45
15,TATATATAGCATATTTCACACACACCGAATGAATAT [CACACA_site9182],9.42 ± 0.31
16,CACCCATAGAAACACACACACGCATAAAAAAAAAAA [CACACA_site1513],9.56 ± 0.37
17,TAAAAACAAAAATGCACACATAATAAGCATATGTAT [CACACA_site3469],9.14 ± 0.37
18,TACAAAATAGTTTACACACACATATATATACATATA [CACACA_site2615],9.18 ± 0.28
19,TTTATTTTTATGGTCACACATATTTTTAAAACTATA [CACACA_site4372],8.72 ± 0.43
20,TTTTTTTTTTTATATACTGGAAATATATTTAATTTA [GTGCAC_negctrl_site250],8.26 ± 0.47
21,TTTTTTTAATTTGGTTGTACTTAAAAAAAAAACAGA [XGTACX_site5788],8.03 ± 0.42
22,GGTAAGTACGACTTGACACACATACCCATATATATA [CACACA_site4837],9.2 ± 0.55

row,Sequence,gcPBM binding intensity (ln)
1,ACAGTATCTGGTAGCTGTACGAGTCGTAGAGTGCAG [XGTACX_site2015],9.04 ± 0.53
2,GCGAAATATTATTATAGTATACAAATACTTCTATGA [CACACA_negctrl_site197],8.62 ± 0.42
3,GGTGTTAAAAAATACACACACAAAAAAAAAAAAAAA [CACACA_site138],9.03 ± 0.54
4,TAACTTGAATGGATATGTACATATATATATATATAT [XGTACX_site5990],9.91 ± 0.22
5,ATTCATCTATTTTGTAGTACTAAATATATATCTACT [XGTACX_site8790],8.87 ± 0.4
6,TAGATGTATGTACATACACACATATATAAATAAATA [CACACA_site1788],9.21 ± 0.47
7,AATAAACATATATACACACACAAAAAAAAAAACATA [CACACA_site424],9.59 ± 0.5
8,TTCTTCTGTTTTATTACACACCATTTTGTGGATACA [CACACA_site5181],9.12 ± 0.35
9,TACCTAGGATTAAAGTGTCCACATAATTTAAATAAT [XGTACX_site6736],8.71 ± 0.5
10,TATATAAATAGACACACACACATATAAATATAAATA [CACACA_site6503],9.69 ± 0.32
11,TTTTTTATTATATAATTGTATATAAAATTATAATTT [GTGCAC_negctrl_site733],8.32 ± 0.3
12,GAATGTATATTCATGTATTTATTATTATTATTATTA [XGTACX_negctrl_site156],8.54 ± 0.52
13,TAAAAATTAATATAAACACACAAAAATTAATAAATA [CACACA_site381],8.74 ± 0.51
14,TATAACAAGTTATAAAGTACAAATGTTGAATTTTAT [XGTACX_site4673],8.62 ± 0.42
15,TCGGGAGGGGGGAAGCGTACATATATAAAATTATTA [XGTACX_site4683],9.69 ± 0.37
16,TATAGATACAGATACACACACACACCGACATATATA [CACACA_site5832],10 ± 0.22
17,ATATGCCTAATAAAATGTACGTTTGTTTTATTTATT [XGTACX_site3833],8.95 ± 0.38
18,ATATATATATTTTGGTAGCACCTCCTTTTTTTTTTT,8.89 ± 0.58
19,TATGTATTTATATTAACACACAAAAAAAAAAAAAAA [CACACA_site5070],8.62 ± 0.39
20,ATATGGCTAAAAGTTGCACACACACTAATAAAAAAA [CACACA_site9082],9.29 ± 0.37
21,ATTATTTTACTAAAAGATATTCCTTTTTTTTGTACT [CACACA_negctrl_site998],8.68 ± 0.45
22,TAAAAAATAAAAAAAGCACACACATATATATATATA [CACACA_site8567],9.77 ± 0.18
